This is an account of results in PMC4336329 (PLoS ONE, 2015).

Screen size: about 310,000 compounds; about 2,200 (0.71%) showed an effect of 50% or more. The effect is printed as a negative number. The list shows a part of the results.

The target of this test is human ether-à-go-go-related gene (hERG) potassium channel (human, UniProt Q12809). Description: primary screen, population patch clamp on CHO cells stably expressing hERG.
human ether-à-go-go-related gene (hERG) potassium channel, sequence (Q12809 whole entry, looked up): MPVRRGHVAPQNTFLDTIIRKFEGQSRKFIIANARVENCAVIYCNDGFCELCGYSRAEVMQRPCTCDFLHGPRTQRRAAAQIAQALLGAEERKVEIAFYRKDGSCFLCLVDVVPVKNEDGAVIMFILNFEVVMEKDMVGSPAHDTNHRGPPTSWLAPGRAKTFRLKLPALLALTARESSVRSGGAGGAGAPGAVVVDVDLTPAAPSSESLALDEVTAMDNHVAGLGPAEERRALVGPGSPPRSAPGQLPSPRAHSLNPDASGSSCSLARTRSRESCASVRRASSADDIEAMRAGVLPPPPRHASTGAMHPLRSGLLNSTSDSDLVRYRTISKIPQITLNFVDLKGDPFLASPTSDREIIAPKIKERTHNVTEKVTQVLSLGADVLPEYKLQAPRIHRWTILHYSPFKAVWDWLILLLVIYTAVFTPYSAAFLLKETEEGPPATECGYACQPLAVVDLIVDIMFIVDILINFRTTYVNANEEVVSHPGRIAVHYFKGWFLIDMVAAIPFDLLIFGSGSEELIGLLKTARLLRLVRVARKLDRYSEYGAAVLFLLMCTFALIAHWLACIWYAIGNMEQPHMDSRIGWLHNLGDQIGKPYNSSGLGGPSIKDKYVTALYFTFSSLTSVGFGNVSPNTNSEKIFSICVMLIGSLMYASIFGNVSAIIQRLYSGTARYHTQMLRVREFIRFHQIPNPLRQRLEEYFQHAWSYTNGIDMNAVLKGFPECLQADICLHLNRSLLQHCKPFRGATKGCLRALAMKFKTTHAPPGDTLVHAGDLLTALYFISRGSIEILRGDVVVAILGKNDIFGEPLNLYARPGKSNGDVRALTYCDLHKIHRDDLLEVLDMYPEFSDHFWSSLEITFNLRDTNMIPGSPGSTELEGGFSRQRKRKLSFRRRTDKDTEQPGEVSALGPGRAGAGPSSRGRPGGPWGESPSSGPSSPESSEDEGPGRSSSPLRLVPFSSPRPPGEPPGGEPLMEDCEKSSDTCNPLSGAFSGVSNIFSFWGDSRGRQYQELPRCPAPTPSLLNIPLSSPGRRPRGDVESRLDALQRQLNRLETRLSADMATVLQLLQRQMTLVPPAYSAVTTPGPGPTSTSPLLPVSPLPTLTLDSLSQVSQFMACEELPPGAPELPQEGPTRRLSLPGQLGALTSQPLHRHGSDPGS
For `O=C(CCn1c(=S)[nH]c2ccccc2c1=O)N1CCCCC1`, the “hERG current change (%, negative = inhibition) at 1uM” value is given as 14.1%.

`O=C(Cc1ncc(C(F)(F)F)cc1Cl)N1CCN(c2ccccn2)CC1`: the “hERG current change (%, negative = inhibition) at 1uM” value was -1.62%.

As for `O=C1C2C(C(=O)N1CCc1ccccc1)C1C=CC2C12CC2` (centres unmarked), the “hERG current change (%, negative = inhibition) at 1uM” value worked out at 12.7%.

On to `COc1cc(/C=N/NC(=O)C(Cc2c[nH]c3ccccc23)NC(=O)OCC(C)C)cc([N+](=O)[O-])c1OCc1ccccc1` (centres unmarked), for which the “hERG current change (%, negative = inhibition) at 1uM” value turned out to be 8.72%.

Regarding `Cc1ccnc(NC(=O)CNC(=O)c2sc3ccccc3c2Cl)c1`, the “hERG current change (%, negative = inhibition) at 1uM” value came to 10.1%.

As to `O=c1oc2cc(OCc3c(F)cccc3Cl)ccc2cc1-c1ccccn1`, the “hERG current change (%, negative = inhibition) at 1uM” value is on record as 5%.

In the case of `COc1ccc(NC(=S)NC2CC3CCCC(C2)N3C2CC2)cc1` (centres unmarked), the “hERG current change (%, negative = inhibition) at 1uM” value is on record as -12.2%.

With `O=C(CCNC(=O)N1CC(=O)Nc2ccccc21)NCc1cccc(Cl)c1`, the “hERG current change (%, negative = inhibition) at 1uM” value is on record as 13.8%.

Turning to `Cc1nc(-c2ccccc2)sc1C(=O)O`, the “hERG current change (%, negative = inhibition) at 1uM” value was determined as 7.52%.

On to `Cc1cc(Cl)ccc1C(=O)C1CCCN(C(=O)c2snnc2C)C1` (centres unmarked), for which the “hERG current change (%, negative = inhibition) at 1uM” value is on record as -22.7%.

With `CC(c1ccccc1)n1c(-c2ccc(Cl)cc2)n[nH]c1=S` (centres unmarked), the “hERG current change (%, negative = inhibition) at 1uM” value was determined as 10.4%.

`CCOC(=O)c1cc(OC(=O)c2ccccc2)n(-c2ccccc2)n1`: the “hERG current change (%, negative = inhibition) at 1uM” value is -7.31%.

As to `CCOC(=O)C(C)Sc1ncnc2c1c(-c1ccccc1)cn2-c1ccc(OC)cc1` (centres unmarked), the “hERG current change (%, negative = inhibition) at 1uM” value stood at 7.46%.

As for `CCOC(=O)Nc1ccc2c(c1)N(C(=O)OCCN(C)C)c1ccccc1CC2`, the “hERG current change (%, negative = inhibition) at 1uM” value was -16.6%.

With `CCOc1cc(/C=N/n2cnnc2)c(Br)cc1O`, the “hERG current change (%, negative = inhibition) at 1uM” value was -6.9%.

Consider `COc1ccc(/C=C2\Sc3ccc(C(=O)N4CCc5ccccc5C4)cc3N(C)C2=O)cc1`, for which the “hERG current change (%, negative = inhibition) at 1uM” value is given as 5.21%.

Regarding `CCOC(=O)CC(NC(=O)C1c2ccccc2Oc2ccccc21)c1ccccc1Cl` (centres unmarked), the “hERG current change (%, negative = inhibition) at 1uM” value worked out at 25.3%.

As to `O=C(NCc1nnnn1-c1cccc(F)c1)c1ccc(S(=O)(=O)N2CCOCC2)cc1`, the “hERG current change (%, negative = inhibition) at 1uM” value is 10.1%.

On to `CCOC(=O)C1=C(N)Oc2cc(O)ccc2C1c1ccc(F)cc1F` (centres unmarked), for which the “hERG current change (%, negative = inhibition) at 1uM” value is 13%.

Take `Cc1nc(C)c(C(=O)NNS(=O)(=O)c2ccc3ccccc3c2)s1`: the “hERG current change (%, negative = inhibition) at 1uM” value came out at 9.1%.

Regarding `O=C(Nc1ccc(O)cc1)/C(=C\C=C\c1ccccc1)NC(=O)c1ccccc1`, the “hERG current change (%, negative = inhibition) at 1uM” value was determined as 5.49%.

Turning to `CCOc1cc(/C=N/NC(N)=S)cc(Br)c1OCc1ccccc1C`, the “hERG current change (%, negative = inhibition) at 1uM” value came to 15.3%.

Regarding `O=C(CCC1CCCN(C(=O)c2cccnc2)C1)NCc1ccccc1F` (centres unmarked), the “hERG current change (%, negative = inhibition) at 1uM” value worked out at 2.53%.

Regarding `C/C=C(\C)C(=O)Nc1cccc(C2=NOC3(C2)C[C@H](C(N)=O)N(C(=O)c2cc([N+](=O)[O-])cc([N+](=O)[O-])c2)C3)c1` (some centres unmarked), the “hERG current change (%, negative = inhibition) at 1uM” value amounted to 6.85%.

For the compound `CC1(C)CC(=O)C(C(=O)Cc2ccccc2[N+](=O)[O-])C(=O)C1`, the “hERG current change (%, negative = inhibition) at 1uM” value is reported as 20.4%.

For `O=C(CC1NCCNC1=O)Nc1ccc(Cl)c(Cl)c1` (centres unmarked), the “hERG current change (%, negative = inhibition) at 1uM” value was 7.1%.

Consider `Nc1nc(C2CCCCC2)cs1`, for which the “hERG current change (%, negative = inhibition) at 1uM” value is listed as 2.04%.

Take `CCc1nnc(NC(=O)CSc2nnc(-c3ccccc3OC)n2-c2ccc(C)cc2)s1`: the “hERG current change (%, negative = inhibition) at 1uM” value amounted to 7.53%.

`Cc1ccccc1C(=O)Nc1nnc(S(=O)(=O)N2CCCCC2)s1`: the “hERG current change (%, negative = inhibition) at 1uM” value was 0.543%.

On to `COCCCNCCOc1cc(C(C)C)ccc1C`, for which the “hERG current change (%, negative = inhibition) at 1uM” value is reported as 11.1%.

`Cc1nn(-c2ccc(N3CCCCC3)nn2)c(C)c1CCC(=O)Nc1ccccc1F`: the “hERG current change (%, negative = inhibition) at 1uM” value worked out at 7.01%.

On to `COC(c1ccccc1)c1nnc(CCC(=O)N(C)CCCC2CCCC2)o1` (centres unmarked), for which the “hERG current change (%, negative = inhibition) at 1uM” value stood at 0.616%.

In the case of `Cc1onc(-c2c(F)cccc2Cl)c1C(=O)Nc1nnc(C2CC2)s1`, the “hERG current change (%, negative = inhibition) at 1uM” value is reported as 7.17%.

As for `COc1ccc(S(=O)(=O)N/N=C\c2ccc3c(c2)OCO3)c(OC)c1`, the “hERG current change (%, negative = inhibition) at 1uM” value was determined as 12.7%.

Consider `COc1ccccc1CC(=O)Nc1cccc(S(=O)(=O)N2CCOCC2)c1`, for which the “hERG current change (%, negative = inhibition) at 1uM” value is 10.6%.

With `COC(=O)c1cc2c(C)c(C)c3ccccn3c-2c1C(=O)OC`, the “hERG current change (%, negative = inhibition) at 1uM” value is 12.9%.

Take `O=C(Cn1nnc(-c2ccccc2)n1)N1CCCCC1`: the “hERG current change (%, negative = inhibition) at 1uM” value was determined as 11.8%.

With `COc1cccc(C2=NOC(C(=O)NCc3ccc(F)cc3)C2)c1` (centres unmarked), the “hERG current change (%, negative = inhibition) at 1uM” value is reported as -9.95%.

Turning to `CCOC(=O)COc1c(Cl)cc(C2NC(=S)NC(c3ccccc3)=C2C(C)=O)cc1OC` (centres unmarked), the “hERG current change (%, negative = inhibition) at 1uM” value amounted to 4.15%.

With `Fc1ccc(NC(=S)Nc2cccc3ccccc23)cc1F`, the “hERG current change (%, negative = inhibition) at 1uM” value is 10.4%.

`Cc1ccc(C)c(-n2c(SCC(=O)NCC3CCCO3)nnc2-c2ccoc2C)c1` (centres unmarked): the “hERG current change (%, negative = inhibition) at 1uM” value is 6.11%.

As for `CCc1ccc(C2NC(=O)c3ccccc3O2)cc1` (centres unmarked), the “hERG current change (%, negative = inhibition) at 1uM” value is 2.73%.

For `CC12CCC(C(=O)N(NC(=O)c3ccccc3Cl)C1=O)C2(C)C` (centres unmarked), the “hERG current change (%, negative = inhibition) at 1uM” value was 13.7%.

Take `Cc1sc2nc(SCC(=O)N(C)c3ccccc3)n(C)c(=O)c2c1C`: the “hERG current change (%, negative = inhibition) at 1uM” value is listed as 9.78%.
